# Results reported in publication PMC12136788.
# This is one part of the list.
# T1: UNK ZnF1-3 (human, UniProt Q9C0B0 31-174)
# T1 sequence: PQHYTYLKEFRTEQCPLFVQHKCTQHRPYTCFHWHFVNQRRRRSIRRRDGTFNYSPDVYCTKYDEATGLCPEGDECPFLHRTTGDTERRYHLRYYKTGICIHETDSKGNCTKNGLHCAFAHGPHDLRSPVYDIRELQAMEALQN
# B1: chr20:42825305:42825306:-_ENSG00000132823_ENST00000255174|hu_mus|FALSE|FALSE (ssRNA)
# RNA: GGGAGUUCUACAGUCCGACGAUCUUAAACCAAAGACAGUUUAAAUGAGUCUCAUAAGCUCUACUAUUGAUGGGCUGGCAUCUACAGCAUGACAAGUGUUCAAUUCAGUUACAAAUGCACAUUUGAGUUUCUUGCUGCCACAUCCAACAGAGGAUUGAGCAUCA
# B2: chr7:136912400:136912401:-_ENSG00000105894_ENST00000348225|hu_hu|FALSE|FALSE (ssRNA)
# RNA: GGGAGUUCUACAGUCCGACGAUCUUUUGUUUAGUAUAUAUUUUUCUCAAUUGGGAAAAAAAUCUAGGUGAAAAAAAUUACCUAACAAGAGAAGUAGUUUACAUAGUCAUAACAUUUAAAUUGCUGCCCAAAAAAUGUAAAAAACAACAGAGGAUUGAGCAUCA
# B3: 136599505_136599625_684_CDS_ENSG00000029363_ENST00000527536|human|control|control (ssRNA)
# RNA: GGGAGUUCUACAGUCCGACGAUCCCCUUCAGCUUUUUUGGUUUGUUUUUCCUGAGACCCUCGUCUUUUAGAAACAGGAGAUUUGCUAUAUGGGGAUGAAGAACGAGAAGAGGAUGAUCUUGGAGACCUAGAAGAUCUAUAUGACAACAGAGGAUUGAGCAUCA
# B4: chr20:33128396:33128397:+_ENSG00000125971_ENST00000357156|hu_hu|FALSE|FALSE (ssRNA)
# RNA: GGGAGUUCUACAGUCCGACGAUCGACACAGGGAGCCAAGAGAGUGGCUUAUUCGGUUGGAUUCUGAAUCACAAUCAGGAAAUAGUCUUUAUCUGGUGCAACCAUAAUUUCAUUUUUCUUGGAGCGAAUUCGAAGGAAGGUGAGCAACAGAGGAUUGAGCAUCA
# B5: chr11:102258902:102258903:+_ENSMUSG00000006575_ENSMUST00000006750|mus_mus|motif|central (ssRNA)
# RNA: GGGAGUUCUACAGUCCGACGAUCGAAAUUAACAAACUCCUCGGAAGAGUCAUCAAUGGGUUCUGCUGUGUACUUCUCGGGCAGGGUUUUCACAGAGAACCUGCACACGGUGAUCAGGUUCCUGCGCUCCACGAUCACGUUGCGCAACAGAGGAUUGAGCAUCA
# B6: chr1:153198750:153198751:+_ENSMUSG00000023150_ENSMUST00000023918|perfect_dup|motif|central (ssRNA)
# RNA: GGGAGUUCUACAGUCCGACGAUCUUCUGGAUUGAGAUCAUCCAACUUCACAUGAGAAACUCCAUGAGGGUCACUGUCACGGUUGAAGAUUUCAAAUAGAUAGGGGCUACAGCAAGCCAGGACUGCCCUGUGUGCUAGCAUCUCCAACAGAGGAUUGAGCAUCA
# B7: chr18:38477064:38477065:+_ENSMUSG00000060450_ENSMUST00000072376|mus_mus|motif|central (ssRNA)
# RNA: GGGAGUUCUACAGUCCGACGAUCGCUCUUCACAGGUUUAGAGAGCAUUCAUGAGGAAUACACUGGGCUUUUUCCGGCUCGGGUGAGGAAAUAAAGACACACACUGCUGGGAUCAACAUUAAAACUGUCCUUGCCCACAAGAGGCAACAGAGGAUUGAGCAUCA
# B8: chr14:103969519:103969520:+_ENSG00000075413_ENST00000216288|hu_mus|motif|central (ssRNA)
# RNA: GGGAGUUCUACAGUCCGACGAUCAUUACUGGGUUACAGCUUUAGCUCAUUGGCAAUUUUGGAAGCAAUAUUUUUGAAAGCGGUGGAUGUCCCUGAUAUCCGCUUAAACCGGACUCCAUUCAGAGACAGUCUUGGCAGCUUACACAACAGAGGAUUGAGCAUCA
# B9: 19910841_19910961_2423_CDS_ENSMUSG00000027615_ENSMUST00000012580|mouse|control|control (ssRNA)
# RNA: GGGAGUUCUACAGUCCGACGAUCCCUCUCAGAUAACCUCCAAACGUACUGAGAGAUGAGCUUGAAAAAGAGUUCCUCAAGUACCACAUUUGGGAGACAAGCUACGAGCUGAGCUUCCCAGAAGUCUAUCAAAAGCUGCGGAACCAACAGAGGAUUGAGCAUCA
# B10: 88393090_88395398_2046_CDS_ENSMUSG00000005371_ENSMUST00000130379|mouse|control|control (ssRNA)
# RNA: GGGAGUUCUACAGUCCGACGAUCUCAAAUAUUCUGUUUUUCCUUAAUACUGGAUGACUGUUAGUGCUGAUGAGGACACCUGCUUGAGCGUUCCUGAAAAUAUCAUUUUCUUCAAGGAGACCUCGACCCCCAUUAAAUAUACAGCAACAGAGGAUUGAGCAUCA
# B11: chr1:213174215:213174216:-_ENSG00000174606_ENST00000366962|hu_mus|FALSE|FALSE (ssRNA)
# RNA: GGGAGUUCUACAGUCCGACGAUCUGUUUUUUCUACUUUGGGAACCUGCUGUGCCUCAUAAACACAGUUCUGAGAGAUGCCUAGGUUUGGGGGCCAAAUUGGAAUAGAUAAAAUUCUUUGUCCCCGUGAAGACUGUUCCUGGCCCAACAGAGGAUUGAGCAUCA
# B12: chr18:34792849:34792850:-_ENSMUSG00000024370_ENSMUST00000133181|mus_mus|FALSE|FALSE (ssRNA)
# RNA: GGGAGUUCUACAGUCCGACGAUCGAUCUAUAGCACCUACUGCACAAGCUCAUUGUAGCAGACAUCAAGUGGCUCUGAAACCUAGAAAAACACAGUGAAUUCUUCAACCUUGUAGAUAAGGUUGAAAACCAAAUUGGAGACUUUCAACAGAGGAUUGAGCAUCA
# B13: chr4:41496568:41496569:+_ENSG00000064042_ENST00000508501|hu_hu|FALSE|FALSE (ssRNA)
# RNA: GGGAGUUCUACAGUCCGACGAUCUUUAACAAGUCCUGGCUUUAUAGCAUUCAGCAACUCGCAGAGGAGGAUUCCAUUUUCUAAACCUGUCCGAAAAUCUUUAUCACCAAAACUUCUGCCAGUUACUUGCUCAAUCCACUUCUGCAACAGAGGAUUGAGCAUCA
# B14: chr8:23117756:23117757:+_ENSG00000147457_ENST00000313219|hu_hu|FALSE|FALSE (ssRNA)
# RNA: GGGAGUUCUACAGUCCGACGAUCAGCUUCAAGUUCAGCAUCUGAGAUCCUAGGGUUAGGCACGCUGUUGGUAAAAUGCCUAUUGCGGGGGUUGUCAGGCAGAUCCAAAGGUUCUUUGGUGGUAUCCUGAAGGAGGAUGUCCAACAACAGAGGAUUGAGCAUCA
# B15: chr4:148551591:148551592:-_ENSMUSG00000063077_ENSMUST00000060537|mus_hu|mus_mus_mus_hu_False|48_68 (ssRNA)
# RNA: GGGAGUUCUACAGUCCGACGAUCACCUGACAAAAUUAAAUAUCCCUGUAAAUUAGACAAUAAGCAGCAGGUAACAAAGUCUUUGCUUUGAAAUAUGUGCCAGGAAAAGUCAUCUUGUUUUUAGAUCUCAAGAGACAGUUCACACAACAGAGGAUUGAGCAUCA
# B16: chr4:101285476:101285477:+_ENSMUSG00000028528_ENSMUST00000094953|mus_mus|FALSE|FALSE (ssRNA)
# RNA: GGGAGUUCUACAGUCCGACGAUCGAGUGGCUUGAAGUGAGGGCGGUAGGGCUUAUCUGCAAGUAGGUCGCACAUGUAGCCUAAGUACCUCCUGUGAGACGGAGACAGUCCAAUUCCUGGUCGCUUUGCGUAGAGUAAUCGAACCAACAGAGGAUUGAGCAUCA
# B17: 13644904_13657380_983_CDS_ENSG00000010017_ENST00000011619|human|control|control (ssRNA)
# RNA: GGGAGUUCUACAGUCCGACGAUCAUUGGCAUCGACCACUUCUCCUGGUGUUUGAAGCCCCACAGUAGGAUACAAAUUUGGCGGUAGGUCAGUGAAAGCAAUACCUAAACUAUGUCCAUUCUUGGUGUAAAAGCAGGUAUUGUUCAACAGAGGAUUGAGCAUCA
# B18: chr3:14508043:14508044:+_ENSG00000131389_ENST00000360861|hu_mus|FALSE|FALSE (ssRNA)
# RNA: GGGAGUUCUACAGUCCGACGAUCAGCACCUGGCAGGGUCAGUCCACGGACCAGCAGCACCAGAAGCAUGGCAAACGGGAAAGUAGCGGUGAAGUAGACAACCUUGCCUGUGGAUCGAACACCCUUCCAGAUGCAGAAAAAACACAACAGAGGAUUGAGCAUCA
# B19: chr22:38884116:38884117:-_ENSG00000100201_ENST00000396821|hu_hu|motif|central (ssRNA)
# RNA: GGGAGUUCUACAGUCCGACGAUCAUAAUCCUCUGAGCUGUUUGGAUAGUCAUAGUUGAUCACAAACUUGACAUCUUCCACAUCGGGCCCACGGGAGGCUACAUCUGUAGCAAUAAGGAUGGGUGCCUUUCCAGAACGGAACUCCAACAGAGGAUUGAGCAUCA
# B20: chr6:86238017:86238018:-_ENSG00000135317_ENST00000369627|hu_hu|FALSE|FALSE (ssRNA)
# RNA: GGGAGUUCUACAGUCCGACGAUCUGGAUGCUGCAGAAGUUUCUGUAGAUAUUCUUGGAACUCUUCCCUCUUUGACUUUAAGAAUUCAUAAUUUUUGGGGCCAAUGAUCCUCUUAGAAGGAAGCUGGGCAUCAGGAAAUGCACCCAACAGAGGAUUGAGCAUCA
# B21: chr1:39494564:39494565:+_ENSG00000168653_ENST00000372967|hu_hu|hu_hu_hu_mus_True|38_108 (ssRNA)
# RNA: GGGAGUUCUACAGUCCGACGAUCAUGUGCACGUCUCAUCGUUUUGUACCGAAGCAAGCACUCUUCGAAGUCAUCGAACUCUAUCUUGCACUCCUUUUCUGCCCGAGUCCCACCGAUCCCGUGUGCACACUCUAUCCACUCUUUCAACAGAGGAUUGAGCAUCA
# B22: chr5:71516810:71516811:-_ENSG00000113048_ENST00000457646|hu_mus|FALSE|FALSE (ssRNA)
# RNA: GGGAGUUCUACAGUCCGACGAUCCGCACUCAGCGCCUGGUACUCUUGCUUGGCCUUCUCCCUCUGUUCCUGCUCCCUCUGGAUCAACUGCACCCGCUCCAGGUGCCACUCACGGAGUUUCUGCUCGUAGGUGGCCAGGUCCUCCAACAGAGGAUUGAGCAUCA
# Target: T1, UNK ZnF1-3
# Experiment: nsRBNS (natural sequence RNA bind-n-seq); RBNS binding buffer (assumed for nsRBNS): 25 mM Tris pH 7.5, 150 mM KCl, 3 mM MgCl2, 0.01% Triton X-100, 500 ug/ml BSA, 20 U/ml SUPERase-In, 4 C; UNK is unkempt and MSI1 is Musashi-1; names of the RNAs are library labels; protein concentration not given here; high values mean tight binding
row,Binder,binding signal [enrichment R]
1,B1,0.769
2,B2,1.18
3,B3,1.68
4,B4,1.73
5,B5,0.627
6,B6,1.74
7,B7,1.17
8,B8,0.598
9,B9,1.1
10,B10,1.02
11,B11,0.849
12,B12,1.58
13,B13,1.02
14,B14,1.09
15,B15,1
16,B16,0.783
17,B17,1.26
18,B18,1.44
19,B19,0.778
20,B20,1.28
21,B21,0.635
22,B22,0.679
